# Laboratory results as given in the supplement of paper PMC4967469.
# A lower IC50 marks a more sensitive line; a fit beyond the top or the lowest dose is shown as a bound at that dose. The AUC spans the tested range (256-fold, ending at the top dose) of the same fit; the more sensitive the line, the further below 1. Where the top dose is marked as inferred, it was derived from the fitted curves, not read from the paper.
# Compound: CCn1cc(-c2ccnc3[nH]c(-c4cccc(CN(C)C)c4)cc23)c(-c2ccc(NC(=O)N(C)C)cc2)n1 [GSK1070916]
# Experiment: Viability of human cancer cell lines after 72 h of drug (GDSC screen)
# Conditions: top dose inferred
# Experimental: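 Human cancer cell lines in 384-well plates, medium with 10% serum, drug for 72 h over a 256-fold dose range (nine 2-fold or five 4-fold steps up to the top dose). Adherent lines were fixed and stained with the nucleic acid dye Syto60, suspension lines read with resazurin; signal relative to control wells, capped at 0 and 100%. One two-parameter sigmoid per drug and line, fitted in a mixed model over all curves with the slope shared within a line.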
Cell Line,AUC,IC50
"KP-N-YN (neuroblastoma, adherent, top dose 2.56 µM)",0.956,> 2.56 µM
"FU-OV-1 (ovary, adherent, top dose 2.56 µM)",0.885,> 2.56 µM
"LS-180 (large intestine, adherent, top dose 2.56 µM)",0.975,> 2.56 µM
"RCC-FG2 (kidney, adherent, top dose 2.56 µM)",0.961,> 2.56 µM
"BICR22 (head and neck, adherent, top dose 2.56 µM)",0.983,> 2.56 µM
"BICR31 (head and neck, adherent, top dose 2.56 µM)",0.963,> 2.56 µM
"JHOS-3 (ovary, adherent, top dose 2.56 µM)",0.957,> 2.56 µM
"HN (head and neck, adherent, top dose 2.56 µM)",0.983,> 2.56 µM
"NCI-H1792 (lung adenocarcinoma, adherent, top dose 2.56 µM)",0.914,> 2.56 µM
"NB5 (neuroblastoma, adherent, top dose 2.56 µM)",0.86,2.18 µM
"CaR-1 (large intestine, adherent, top dose 2.56 µM)",0.939,> 2.56 µM
"Ca9-22 (head and neck, adherent, top dose 2.56 µM)",0.986,> 2.56 µM
"A498 (kidney, adherent, top dose 2.56 µM)",0.974,> 2.56 µM
"TOV-21G (ovary, adherent, top dose 2.56 µM)",0.967,> 2.56 µM
"NB10 (neuroblastoma, adherent, top dose 2.56 µM)",0.784,1.06 µM
"NCI-H2172 (non-small cell lung carcinoma, adherent, top dose 2.56 µM)",0.977,> 2.56 µM
"JHH-1 (liver, adherent, top dose 2.56 µM)",0.981,> 2.56 µM
"CHP-212 (neuroblastoma, adherent, top dose 2.56 µM)",0.876,2.2 µM
"H2722 (mesothelioma, adherent, top dose 2.56 µM)",0.946,> 2.56 µM
"H-EMC-SS (chondrosarcoma, adherent, top dose 2.56 µM)",0.813,1.93 µM
"HuCCT1 (biliary tract, adherent, top dose 2.56 µM)",0.94,> 2.56 µM
"FLO-1 (oesophagus, adherent, top dose 2.56 µM)",0.898,> 2.56 µM
"OSC-20 (head and neck, adherent, top dose 2.56 µM)",0.867,> 2.56 µM
"NCI-H1693 (lung adenocarcinoma, adherent, top dose 2.56 µM)",0.953,> 2.56 µM
"CAL-29 (bladder, adherent, top dose 2.56 µM)",0.982,> 2.56 µM
"MHH-NB-11 (neuroblastoma, adherent, top dose 2.56 µM)",0.518,0.18 µM
"BC-3 (B-cell lymphoma, suspension, top dose 2.56 µM)",0.965,> 2.56 µM

Cell Line,AUC,IC50
"H2795 (mesothelioma, adherent, top dose 2.56 µM)",0.781,1.05 µM
"MOLT-4 (lymphoblastic leukaemia, suspension, top dose 2.56 µM)",0.138,0.0164 µM
"RD (rhabdomyosarcoma, adherent, top dose 2.56 µM)",0.937,> 2.56 µM
"H2591 (mesothelioma, adherent, top dose 2.56 µM)",0.922,> 2.56 µM
"IGR-1 (melanoma, adherent, top dose 2.56 µM)",0.903,> 2.56 µM
"KURAMOCHI (ovary, adherent, top dose 2.56 µM)",0.927,> 2.56 µM
"MDA-MB-330 (breast, adherent, top dose 2.56 µM)",0.965,> 2.56 µM
"OCI-AML5 (acute myeloid leukaemia, suspension, top dose 2.56 µM)",0.153,0.0156 µM
"HCC1187 (breast, suspension, top dose 2.56 µM)",0.219,0.0254 µM
"IGR-37 (melanoma, adherent, top dose 2.56 µM)",0.986,> 2.56 µM
"KGN (ovary, adherent, top dose 2.56 µM)",0.679,0.565 µM
"RCM-1 (large intestine, adherent, top dose 2.56 µM)",0.973,> 2.56 µM
"NCI-H720 (lung carcinoid, suspension, top dose 2.56 µM)",0.987,> 2.56 µM
"HTC-C3 (thyroid, adherent, top dose 2.56 µM)",0.954,> 2.56 µM
"H3255 (lung adenocarcinoma, adherent, top dose 2.56 µM)",0.944,> 2.56 µM
"ALL-PO (lymphoblastic leukaemia, suspension, top dose 2.56 µM)",0.243,0.0275 µM
"KE-37 (lymphoblastic leukaemia, suspension, top dose 2.56 µM)",0.028,< 0.01 µM
"no-10 (glioma, adherent, top dose 2.56 µM)",0.98,> 2.56 µM
"MFE-319 (endometrium, adherent, top dose 2.56 µM)",0.988,> 2.56 µM
"MN-60 (B-cell leukaemia, suspension, top dose 2.56 µM)",0.939,> 2.56 µM
"COR-L279 (small cell lung carcinoma, suspension, top dose 2.56 µM)",0.855,1.71 µM
"LN-18 (glioma, adherent, top dose 2.56 µM)",0.988,> 2.56 µM
"EKVX (lung adenocarcinoma, adherent, top dose 2.56 µM)",0.97,> 2.56 µM
"OACp4C (oesophagus, adherent, top dose 2.56 µM)",0.458,0.12 µM
"IST-MEL1 (melanoma, adherent, top dose 2.56 µM)",0.953,> 2.56 µM
"G-292 Clone A141B1 (osteosarcoma, adherent, top dose 2.56 µM)",0.869,> 2.56 µM
"WM278 (melanoma, adherent, top dose 2.56 µM)",0.924,> 2.56 µM

Cell Line,AUC,IC50
"HA7-RCC (kidney, adherent, top dose 2.56 µM)",0.961,> 2.56 µM
"ES7 (Ewing sarcoma, adherent, top dose 2.56 µM)",0.134,0.0107 µM
"SKN-3 (head and neck, adherent, top dose 2.56 µM)",0.962,> 2.56 µM
"ES8 (Ewing sarcoma, adherent, top dose 2.56 µM)",0.052,< 0.01 µM
"SW1710 (bladder, adherent, top dose 2.56 µM)",0.951,> 2.56 µM
"HSC-39 (stomach, suspension, top dose 2.56 µM)",0.588,0.268 µM
"CFPAC-1 (pancreas, adherent, top dose 2.56 µM)",0.956,> 2.56 µM
"OCUM-1 (stomach, adherent, top dose 2.56 µM)",0.987,> 2.56 µM
"TALL-1 (T-cell lymphoblastic leukaemia, suspension, top dose 2.56 µM)",0.95,> 2.56 µM
"YAPC (pancreas, adherent, top dose 2.56 µM)",0.961,> 2.56 µM
"TGBC1TKB (biliary tract, adherent, top dose 2.56 µM)",0.986,> 2.56 µM
"CTV-1 (acute myeloid leukaemia, suspension, top dose 2.56 µM)",0.782,0.854 µM
"RCC-MF (kidney, adherent, top dose 2.56 µM)",0.898,> 2.56 µM
"HCE-4 (oesophagus, adherent, top dose 2.56 µM)",0.99,> 2.56 µM
"LOU-NH91 (lung squamous cell carcinoma, adherent, top dose 2.56 µM)",0.978,> 2.56 µM
"KM12 (large intestine, adherent, top dose 2.56 µM)",0.915,> 2.56 µM
"OAW-28 (ovary, adherent, top dose 2.56 µM)",0.862,> 2.56 µM
"DEL (lymphoid neoplasm, suspension, top dose 2.56 µM)",0.9,2.04 µM
"NCI-H647 (non-small cell lung carcinoma, adherent, top dose 2.56 µM)",0.803,1.35 µM
"IA-LM (large cell lung carcinoma, adherent, top dose 2.56 µM)",0.969,> 2.56 µM
"Detroit562 (head and neck, adherent, top dose 2.56 µM)",0.98,> 2.56 µM
"P31-FUJ (acute myeloid leukaemia, suspension, top dose 2.56 µM)",0.984,> 2.56 µM
"HPAF-II (pancreas, adherent, top dose 2.56 µM)",0.948,> 2.56 µM
"SBC-3 (small cell lung carcinoma, adherent, top dose 2.56 µM)",0.811,1.21 µM
"MOLM-13 (acute myeloid leukaemia, suspension, top dose 2.56 µM)",0.182,0.0192 µM
